Measurements published in PMC4336329 (PLoS ONE, 2015).
Out of some 310,000 compounds screened, about 14,000 (4.5%) showed an effect of 50% or more. The effect is printed as a negative number. Some of the results follow.

Biological target: human ether-à-go-go-related gene (hERG) potassium channel (human, UniProt Q12809)
Assay: primary screen, population patch clamp on CHO cells stably expressing hERG
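Note: peak tail current of the secondary pulse compared with the same well before compound.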

Chain of human ether-à-go-go-related gene (hERG) potassium channel (Q12809 whole entry, looked up): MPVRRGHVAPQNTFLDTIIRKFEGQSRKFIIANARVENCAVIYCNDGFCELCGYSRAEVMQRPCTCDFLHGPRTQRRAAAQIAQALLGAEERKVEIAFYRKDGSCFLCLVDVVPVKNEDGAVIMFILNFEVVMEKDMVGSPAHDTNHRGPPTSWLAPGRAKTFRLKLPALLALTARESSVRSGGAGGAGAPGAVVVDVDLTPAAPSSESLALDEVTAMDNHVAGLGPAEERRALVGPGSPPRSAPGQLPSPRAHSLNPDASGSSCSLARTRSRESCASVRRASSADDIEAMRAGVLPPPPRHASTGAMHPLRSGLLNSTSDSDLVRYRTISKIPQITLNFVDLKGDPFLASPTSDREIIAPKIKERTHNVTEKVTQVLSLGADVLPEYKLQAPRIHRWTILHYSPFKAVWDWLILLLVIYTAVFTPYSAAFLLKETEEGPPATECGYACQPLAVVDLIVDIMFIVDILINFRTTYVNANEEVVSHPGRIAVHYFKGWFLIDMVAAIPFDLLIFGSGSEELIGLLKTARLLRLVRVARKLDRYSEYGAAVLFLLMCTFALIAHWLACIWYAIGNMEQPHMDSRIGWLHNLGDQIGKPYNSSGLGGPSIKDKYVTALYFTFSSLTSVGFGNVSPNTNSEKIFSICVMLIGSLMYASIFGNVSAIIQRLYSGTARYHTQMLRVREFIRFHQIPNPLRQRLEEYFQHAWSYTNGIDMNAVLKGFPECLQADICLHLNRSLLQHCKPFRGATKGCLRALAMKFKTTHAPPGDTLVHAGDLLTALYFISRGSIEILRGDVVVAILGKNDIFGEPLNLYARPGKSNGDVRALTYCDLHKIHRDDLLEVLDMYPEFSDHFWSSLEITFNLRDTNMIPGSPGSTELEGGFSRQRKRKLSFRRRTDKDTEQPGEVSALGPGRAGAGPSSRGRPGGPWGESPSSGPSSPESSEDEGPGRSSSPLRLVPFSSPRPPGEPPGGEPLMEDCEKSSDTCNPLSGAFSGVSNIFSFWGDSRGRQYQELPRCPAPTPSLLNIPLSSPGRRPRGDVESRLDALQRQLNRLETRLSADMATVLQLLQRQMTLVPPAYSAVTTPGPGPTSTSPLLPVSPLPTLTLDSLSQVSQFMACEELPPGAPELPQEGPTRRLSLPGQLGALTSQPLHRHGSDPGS

Row | SMILES | hERG current change (%, negative = inhibition) at 10uM [%]
1 | Cc1c(NC(=O)c2ccc(S(=O)(=O)N3CCOCC3)cc2)cccc1[N+](=O)[O-] | -6.54
2 | CCn1c(SCC(=O)NC(=O)NCc2ccco2)nnc1-c1cccs1 | -49.5
3 | CN(C)S(=O)(=O)c1cc(NC(=O)COC(=O)/C=C/c2ccco2)ccc1Cl | -21.7
4 | O=C(O)/C=C\C(=O)Nc1ccc(Oc2ccccc2)cc1 | 4.72
5 | Cn1c(=O)c2c(nc(NCc3ccco3)n2C)n(C)c1=O | 13.5
6 | CCc1cc(Cn2nc(-c3ccccc3C)cc2C(=O)O)on1 | 4.38
7 | Cc1ccccc1NC(=O)Cc1nc(COC(=O)COc2cccc(C)c2C)cs1 | 22.1
8 | COc1cccc(CCN2C(=O)C(=O)N([C@@H](CNCc3ccccc3)Cc3ccccc3F)C[C@@H]2C(C)(C)C)c1 | -48.5
9 | COc1ccc(NC(=S)NC(=O)/C=C/c2ccco2)cc1 | -4.31
10 | Cc1ccc(N2C(=O)C(c3c(C)[nH]n(-c4ccccc4)c3=O)(C(F)(F)F)C3=C2CC(C)(C)CC3=O)cc1 (stereo not shown) | 23.8
11 | COc1ccc(NC(=O)C(=O)NCCN2CCN(C(=O)c3cccs3)CC2)cc1 | -45.1
12 | COc1nnc(-c2ccc(C)cc2)c2ccccc12 | 5.93
13 | CCc1ccccc1NC(=O)CN1CCN(C(=O)CNC(=O)c2ccccc2F)CC1 | -13.5
14 | Cc1ccc(CCNC(=O)C2CCCN(S(=O)(=O)c3cccs3)C2)cc1 (stereo not shown) | 2.45
15 | Cc1c(C(c2ccc(Br)cc2)c2c(C)n(C)n(-c3ccccc3)c2=O)c(=O)n(-c2ccccc2)n1C | 13.9
16 | O=C(NC1CCCC1)C(=O)N(c1ccccc1F)C(C(=O)NCC1CCCO1)c1cccs1 (stereo not shown) | 5.52
17 | O=C(NCCCN1CCCCCC1)c1ccc2c(Cl)c3c(nc2c1)CCCC3 | -53
18 | Cl.O=C(c1ccco1)N1CCN(Cc2nnnn2CC2CCCO2)CC1 (stereo not shown) | -3.16
19 | COc1ccc(CNC(=O)c2[nH]c(C)c(C(C)=O)c2C)cc1 | 9.67
20 | O=C(NNC(=O)c1ccc(F)cc1F)c1ccc(-n2cnnn2)cc1 | 13.6
21 | CCOC(=O)N1CCN(C(=O)c2ccccc2Oc2ccccc2)CC1 | -11.1
22 | COc1ccc(F)c(CN2CCC(n3nccc3NC(=O)C3CCOC3)CC2)c1 (stereo not shown) | 5.47

Row | SMILES | hERG current change (%, negative = inhibition) at 10uM [%]
23 | COc1cccc(N2CCN(C(=O)CCNS(=O)(=O)c3ccc4c(c3)c(=O)n(C)c(=O)n4C)CC2)c1 | 7.5
24 | CN(CCCNC(=O)C1CCC(CNS(=O)(=O)c2ccccc2)CC1)Cc1ccccc1 (stereo not shown) | -34
25 | CC(C)CCn1cnc2c([nH]c3cccc(Cl)c32)c1=O | 4.47
26 | COc1ccc(C(=O)C2CCCN(C(=O)Cn3cncn3)C2)cc1OC (stereo not shown) | 21.6
27 | CS(=O)(=O)c1cccc(C(=O)NCc2ccccc2)c1 | -0.394
28 | COc1ccc(S(=O)(=O)N2CCCCCC2)cc1 | 1.12
29 | CCOc1ccc(C(=O)CCC(=O)N2CCN(S(=O)(=O)c3cccc(F)c3)CC2)cc1 | -30.7
30 | CCn1c(C(C)NC(=O)c2cccs2)nc2ccccc21 (stereo not shown) | -0.975
31 | C=CCNC(=O)c1ccc2nccnc2c1 | 1.49
32 | CSc1nc(C)c2c(n1)N(c1ccc(O)cc1)CC2 | 4.88
33 | CC(C)[C@H](NC(=O)N1CCn2c1nc1ccccc12)C(=O)NCc1ccco1 | 11.1
34 | CN(C)c1nc(N)c(C(=O)N=C(N)N)nc1Cl.Cl | -20.1
35 | Cc1cccc(-n2nc3c(c2NC(=O)c2ccc(Br)o2)CSC3)c1 | -3.59
36 | Cc1c(S(=O)(=O)N2CCCCC2)c(=O)n(C)c(=O)n1C | -0.159
37 | CCOc1cc(/C=N/NC(N)=O)cc(Br)c1OCc1ccccc1 | 3.4
38 | O=C(NCCN1CCOCC1)C(=O)NCC1OCCN1C(=O)c1ccc(Cl)cc1 (stereo not shown) | 4.46
39 | COc1ccc(O)c(C2(O)C(=O)c3ccccc3C2=O)c1 | 16.1
40 | CN1CCN(C(=O)CCn2c(=O)c3cccn3c3cccnc32)CC1 | 8.62
41 | Cc1cccc(Sc2nc(-c3ccccc3)ccc2C#N)c1 | 3.42
42 | Clc1ccc(-c2ccc(/C=N/Nc3nncc(-c4ccccc4)n3)o2)cc1 | 20.8
43 | CCOc1cc(/C=N/Nc2nc(C)cc(=O)[nH]2)ccc1O | 31.7
